# Measured values published in the supplement of paper PMC4604168 (melanoma cell lines).
# The list shows a part of the results. Single values are uncertain, as repeats are few or missing.
# Test system: COLO829
# Test: cell count relative to DMSO control; melanoma cells; higher = more viable cells
# Conditions: library dose: low library concentration; 72 h
# 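Further: cell number obtained by counting DAPI-stained nuclei in high-throughput microscope images with image analysis software, screen run in 1,536-well plates.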
row,SMILES,cell count
1,"CO[C@H]1C[C@@H]2CC[C@@H](C)[C@@](O)(O2)C(=O)C(=O)N2CCCC[C@H]2C(=O)O[C@H]([C@H](C)C[C@@H]2CC[C@@H](OCCO)[C@H](OC)C2)CC(=O)[C@H](C)/C=C(\C)[C@@H](O)[C@@H](OC)C(=O)[C@H](C)C[C@H](C)/C=C/C=C/C=C/1C [everolimus] + CCN(CC)CCCCNc1ncc2cc(-c3cc(OC)cc(OC)c3)c(NC(=O)NC(C)(C)C)nc2n1 [PD173074] (first compound 0.02 µM, partner dose 0.1 µM)",66%
2,"Nc1ccn([C@@H]2O[C@H](CO)[C@@H](O)C2(F)F)c(=O)n1 [gemcitabine] + O=C1NC(=O)/C(=C/c2ccc(-c3ccc(F)cc3O)o2)S1 [AS252424] (first compound 0.0004 µM, partner dose 1 µM)",96.3%
3,"Nc1ccn([C@@H]2O[C@H](CO)[C@@H](O)C2(F)F)c(=O)n1 [gemcitabine] + Oc1nc(-c2ccc(C(F)(F)F)cc2)nc2c1CSCC2 [XAV939] (first compound 0.0004 µM, partner dose 2 µM)",81.5%
4,"Nc1ccn([C@@H]2O[C@H](CO)[C@@H](O)C2(F)F)c(=O)n1 [gemcitabine] + O=S(=O)(c1ccccc1)N(CC(F)(F)F)c1ccc(C(O)(C(F)(F)F)C(F)(F)F)cc1 [T0901317] (first compound 0.0004 µM, partner dose 1.4 µM)",79%
5,"Nc1nc(F)nc2c1ncn2[C@@H]1O[C@H](CO)[C@@H](O)[C@@H]1O [fludarabine] + CCc1ccc(CCOc2ccc(CC3SC(=O)NC3=O)cc2)nc1 [pioglitazone] (first compound 0.2 µM, partner dose 2 µM)",123%
6,"CC(=O)c1c(C)c2cnc(Nc3ccc(N4CCNCC4)cn3)nc2n(C2CCCC2)c1=O [palbociclib] + Cc1cc([N+](=O)[O-])ccc1NS(=O)(=O)c1cc(Cl)ccc1Cl [FH535] (first compound 0.04 µM, partner dose 1 µM)",91%
7,"CC(=O)O[C@@]12CO[C@@H]1C[C@H](O)[C@@]1(C)C(=O)[C@H](O)C3=C(C)[C@@H](OC(=O)[C@H](O)[C@@H](NC(=O)OC(C)(C)C)c4ccccc4)C[C@@](O)([C@@H](OC(=O)c4ccccc4)[C@H]21)C3(C)C [Docetaxel] + N#Cc1c(O)c2c(-c3ccc(-c4ccccc4O)cc3)csc2[nH]c1=O [A769662] (first compound 0.0001 µM, partner dose 2 µM)",51.2%
8,"Nc1ncn([C@H]2C[C@H](O)[C@@H](CO)O2)c(=O)n1 [decitabine] + COC(=O)c1sccc1S(=O)(=O)Nc1ccc(Nc2ccccc2)cc1OC [GSK0660] (first compound 0.1 µM, partner dose 1 µM)",62.5%
9,"CO[C@H]1C[C@@H]2CC[C@@H](C)[C@@](O)(O2)C(=O)C(=O)N2CCCC[C@H]2C(=O)O[C@H]([C@H](C)C[C@@H]2CC[C@@H](OCCO)[C@H](OC)C2)CC(=O)[C@H](C)/C=C(\C)[C@@H](O)[C@@H](OC)C(=O)[C@H](C)C[C@H](C)/C=C/C=C/C=C/1C [everolimus] + COc1ccc2c(c1)CCC1C2CCC2(C)C(NCCCCCCN3C(=O)C=CC3=O)CCC12 [U73122] (first compound 0.02 µM, partner dose 0.4 µM)",67.9%
10,"CC(=O)O[C@@]12CO[C@@H]1C[C@H](O)[C@@]1(C)C(=O)[C@H](O)C3=C(C)[C@@H](OC(=O)[C@H](O)[C@@H](NC(=O)OC(C)(C)C)c4ccccc4)C[C@@](O)([C@@H](OC(=O)c4ccccc4)[C@H]21)C3(C)C [Docetaxel] + O=S(=O)(c1ccccc1)N(CC(F)(F)F)c1ccc(C(O)(C(F)(F)F)C(F)(F)F)cc1 [T0901317] (first compound 0.0001 µM, partner dose 1.4 µM)",59.2%
11,"Nc1nc(F)nc2c1ncn2[C@@H]1O[C@H](CO)[C@@H](O)[C@@H]1O [fludarabine] + CCN(CC)CCCCNc1ncc2cc(-c3cc(OC)cc(OC)c3)c(NC(=O)NC(C)(C)C)nc2n1 [PD173074] (first compound 0.2 µM, partner dose 0.1 µM)",119%
12,"CC(=O)c1c(C)c2cnc(Nc3ccc(N4CCNCC4)cn3)nc2n(C2CCCC2)c1=O [palbociclib] + N#Cc1c(O)c2c(-c3ccc(-c4ccccc4O)cc3)csc2[nH]c1=O [A769662] (first compound 0.04 µM, partner dose 2 µM)",74.5%
13,"CC(=O)O[C@@]12CO[C@@H]1C[C@H](O)[C@@]1(C)C(=O)[C@H](O)C3=C(C)[C@@H](OC(=O)[C@H](O)[C@@H](NC(=O)OC(C)(C)C)c4ccccc4)C[C@@](O)([C@@H](OC(=O)c4ccccc4)[C@H]21)C3(C)C [Docetaxel] + Oc1cc(-c2nc(-c3ccccc3)[nH]c2-c2ccncc2)ccc1Cl [L779450] (first compound 0.0001 µM, partner dose 0.2 µM)",55.3%
14,"CC(=O)c1c(C)c2cnc(Nc3ccc(N4CCNCC4)cn3)nc2n(C2CCCC2)c1=O [palbociclib] + O=C(O)C(=O)Nc1sc2c(c1C(=O)O)CCNC2 [TCS401] (first compound 0.04 µM, partner dose 1.66667 µM)",76.7%
15,"Nc1ncn([C@H]2C[C@H](O)[C@@H](CO)O2)c(=O)n1 [decitabine] + COc1cc(N2CCC(N3CCN(C)CC3)CC2)ccc1Nc1ncc(Cl)c(Nc2ccccc2S(=O)(=O)C(C)C)n1 [NVP-TAE684] (first compound 0.1 µM, partner dose 0.08 µM)",91%
16,"CC(=O)c1c(C)c2cnc(Nc3ccc(N4CCNCC4)cn3)nc2n(C2CCCC2)c1=O [palbociclib] + CCCCCCCCCCCC1=C(O)C(=O)C=C(O)C1=O [Embelin] (first compound 0.04 µM, partner dose 1.2 µM)",94.7%
17,"CC(=O)O[C@@]12CO[C@@H]1C[C@H](O)[C@@]1(C)C(=O)[C@H](O)C3=C(C)[C@@H](OC(=O)[C@H](O)[C@@H](NC(=O)OC(C)(C)C)c4ccccc4)C[C@@](O)([C@@H](OC(=O)c4ccccc4)[C@H]21)C3(C)C [Docetaxel] + O=C1NC(=O)/C(=C/c2ccc(-c3ccc(F)cc3O)o2)S1 [AS252424] (first compound 0.0001 µM, partner dose 1 µM)",49.4%
18,"CC(=O)O[C@@]12CO[C@@H]1C[C@H](O)[C@@]1(C)C(=O)[C@H](O)C3=C(C)[C@@H](OC(=O)[C@H](O)[C@@H](NC(=O)OC(C)(C)C)c4ccccc4)C[C@@](O)([C@@H](OC(=O)c4ccccc4)[C@H]21)C3(C)C [Docetaxel] + O=c1cc(-c2cccc3c2Sc2ccccc2S3)oc(N2CCOCC2)c1 [KU55933] (first compound 0.0001 µM, partner dose 1 µM)",59.3%
19,"Nc1nc(F)nc2c1ncn2[C@@H]1O[C@H](CO)[C@@H](O)[C@@H]1O [fludarabine] + O=C(Nc1ccccc1)c1cc([N+](=O)[O-])ccc1Cl [GW9662] (first compound 0.2 µM, partner dose 2 µM)",141%
20,"Nc1ncn([C@H]2C[C@H](O)[C@@H](CO)O2)c(=O)n1 [decitabine] + COc1ccc2c(c1)CCC1C2CCC2(C)C(NCCCCCCN3C(=O)C=CC3=O)CCC12 [U73122] (first compound 0.1 µM, partner dose 0.4 µM)",90.4%
21,"Nc1ccn([C@@H]2O[C@H](CO)[C@@H](O)C2(F)F)c(=O)n1 [gemcitabine] + CCCCCCCCCCCC1=C(O)C(=O)C=C(O)C1=O [Embelin] (first compound 0.0004 µM, partner dose 1.2 µM)",85.7%
22,"Nc1ccn([C@@H]2O[C@H](CO)[C@@H](O)C2(F)F)c(=O)n1 [gemcitabine] + COC(=O)c1sccc1S(=O)(=O)Nc1ccc(Nc2ccccc2)cc1OC [GSK0660] (first compound 0.0004 µM, partner dose 1 µM)",85.4%
